# Measurements reported in patent US11618753B2 (priority 2018, dated 2023).
# System: MLKL phosphorylation, HT29-L23 human colorectal adenocarcinoma cells
# Details: read-out: pMLKL HCS Cell Assay (IC50)
row,Structure (SMILES),IC50
1,"Nc1ncnn2c(-c3ccc(F)c(C(=O)N[C@@H]4CN(C(=O)C5CC(F)C5)C[C@@H]4F)c3F)cc(C(F)(F)F)c12 (stereo partly drawn) [Example 724, 3-[4-amino-5-(trifluoromethyl)pyrrolo[2,1-f][1,2,4]triazin-7-yl]-2,6-difluoro-N-[(3R,4S)-4-fluoro-1-(3-fluorocyclobutanecarbonyl)pyrrolidin-3-yl]benzamide]",213 nM
2,"Cc1cc(F)c(-c2cc(C(F)(F)F)c3c(N)ncnn23)cc1C(=O)N[C@@H]1CN(C(=O)C2CCC(F)(F)C2)C[C@@H]1F (stereo partly drawn) [Example 860, 5-[4-amino-5-(trifluoromethyl)pyrrolo[2,1-f][1,2,4]triazin-7-yl]-N-[(3R,4S)-1-(3,3-difluorocyclopentanecarbonyl)-4-fluoropyrrolidin-3-yl]-4-fluoro-2-methylbenzamide]",3.5 nM
3,"CCOc1ccc(-c2cc(C(F)(F)F)c3c(N)ncnn23)cc1C(=O)N[C@@H]1CN(C(=O)C2CC(F)C2)C[C@@H]1F (stereo partly drawn) [Example 1114, 5-[4-amino-5-(trifluoromethyl)pyrrolo[2,1-f][1,2,4]triazin-7-yl]-2-ethoxy-N-[(3R,4S)-4-fluoro-1-(3-fluorocyclobutanecarbonyl)pyrrolidin-3-yl]benzamide]",6.4 nM
4,"CCOc1ccc(-c2cc(C(F)(F)F)c3c(N)ncnn23)cc1C(=O)N[C@@H]1CN(C(=O)C2CC(F)C2)C[C@@H]1F (stereo partly drawn) [Example 1115, 5-[4-amino-5-(trifluoromethyl)pyrrolo[2,1-f][1,2,4]triazin-7-yl]-2-ethoxy-N-[(3R,4S)-4-fluoro-1-(3-fluorocyclobutanecarbonyl)pyrrolidin-3-yl]benzamide]",25 nM
5,"Nc1ncnn2c(-c3cccc(C(=O)N[C@@H]4CN(C(=O)C5CC(F)C5)C[C@@H]4F)c3)cc(CN3CC(F)(F)C3)c12 (stereo partly drawn) [Example 1175, 3-{4-amino-5-[(3,3-difluoroazetidin-1-yl)methyl]pyrrolo[2,1-f][1,2,4]triazin-7-yl}-N-[(3R,4S)-4-fluoro-1-(3-fluorocyclobutanecarbonyl)pyrrolidin-3-yl]benzamide]",1.3 nM
6,"COc1ncc(-c2cc(C(F)(F)F)c3c(N)ncnn23)cc1C(=O)NC1CN(C2CCCC2C(O)C(F)(F)F)C[C@@H]1F (stereo partly drawn) [Example 1362, 5-[4-amino-5-(trifluoromethyl)-pyrrolo[2,1-f][1,2,4]triazin-7-yl]-N-[(3R,4S)-4-fluoro-1-[2-(2,2,2-trifluoro-1-hydroxy-ethyl)cyclopentyl]pyrrolidin-3-yl]-2-methoxypyridine-3-carboxamide]",260 nM
7,"COc1ncc(-c2cc(C(F)(F)F)c3c(N)ncnn23)cc1C(=O)NC1CN(C2CCCC2C(O)C(F)F)C[C@@H]1F (stereo partly drawn) [Example 1366, 5-[4-amino-5-(trifluoromethyl)-pyrrolo[2,1-f][1,2,4]triazin-7-yl]-N-[(3R,4S)-1-[2-(2,2-difluoro-1-hydroxyethyl)-cyclopentyl]-4-fluoro-pyrrolidin-3-yl]-2-methoxy-pyridine-3-carboxamide]",84 nM
8,"COc1ccccc1C(C)N1CC(NC(=O)c2cc(-c3cc(C(F)(F)F)c4c(N)ncnn34)cnc2OC)[C@@H](F)C1 (stereo partly drawn) [Example 1369, 5-[4-amino-5-(trifluoromethyl)-pyrrolo[2,1-f][1,2,4]triazin-7-yl]-N-[(3R,4S)-4-fluoro-1-[1-(2-methoxyphenyl)ethyl]-pyrrolidin-3-yl]-2-methoxy-pyridine-3-carboxamide]",47 nM
9,"COc1ccccc1C(C)N1CC(NC(=O)c2cc(-c3cc(C(F)(F)F)c4c(N)ncnn34)cnc2OC)[C@@H](F)C1 (stereo partly drawn) [Example 1370, 5-[4-amino-5-(trifluoromethyl)-pyrrolo[2,1-f][1,2,4]triazin-7-yl]-N-[(3R,4S)-4-fluoro-1-[1-(2-methoxyphenyl)ethyl]-pyrrolidin-3-yl]-2-methoxy-pyridine-3-carboxamide]",122 nM
10,"COc1ncc(-c2cc(C(F)(F)F)c3c(N)ncnn23)cc1C(=O)NC1CN(C2CCCC2C(O)C(F)F)C[C@@H]1F (stereo partly drawn) [Example 1372, 5-[4-amino-5-(trifluoromethyl)-pyrrolo[2,1-f][1,2,4]triazin-7-yl]-N-[(3R,4S)-1-[2-(2,2-difluoro-1-hydroxyethyl)-cyclopentyl]-4-fluoro-pyrrolidin-3-yl]-2-methoxy-pyridine-3-carboxamide]",192 nM
11,"COc1ncc(-c2cc(C(F)(F)F)c3c(N)ncnn23)cc1C(=O)NC1CN(C2CCCC2C(O)C(F)F)C[C@@H]1F (stereo partly drawn) [Example 1373, 5-[4-amino-5-(trifluoromethyl)-pyrrolo[2,1-f][1,2,4]triazin-7-yl]-N-[(3R,4S)-1-[2-(2,2-difluoro-1-hydroxyethyl)-cyclopentyl]-4-fluoro-pyrrolidin-3-yl]-2-methoxy-pyridine-3-carboxamide]",20 nM
12,"COc1ncc(-c2cc(C(F)(F)F)c3c(N)ncnn23)cc1C(=O)NC1CN(C2CCCC2C(O)C(F)F)C[C@@H]1F (stereo partly drawn) [Example 1374, 5-[4-amino-5-(trifluoromethyl)-pyrrolo[2,1-f][1,2,4]triazin-7-yl]-N-[(3R,4S)-1-[2-(2,2-difluoro-1-hydroxyethyl)-cyclopentyl]-4-fluoro-pyrrolidin-3-yl]-2-methoxy-pyridine-3-carboxamide]",328 nM
13,"COc1ncc(-c2cc(C(F)(F)F)c3c(N)ncnn23)cc1C(=O)NC1CN(C2CCCC2C(O)C(F)(F)F)C[C@@H]1F (stereo partly drawn) [Example 1375, 5-[4-amino-5-(trifluoromethyl)-pyrrolo[2,1-f][1,2,4]triazin-7-yl]-N-[(3R,4S)-4-fluoro-1-[2-(2,2,2-trifluoro-1-hydroxy-ethyl)cyclopentyl]pyrrolidin-3-yl]-2-methoxypyridine-3-carboxamide]",39 nM
14,"COc1ncc(-c2cc(C(F)(F)F)c3c(N)ncnn23)cc1C(=O)NC1CN(C2CCCC2C(O)C(F)(F)F)C[C@@H]1F (stereo partly drawn) [Example 1376, 5-[4-amino-5-(trifluoromethyl)-pyrrolo[2,1-f][1,2,4]triazin-7-yl]-N-[(3R,4S)-4-fluoro-1-[2-(2,2,2-trifluoro-1-hydroxy-ethyl)cyclopentyl]pyrrolidin-3-yl]-2-methoxypyridine-3-carboxamide]",37 nM
15,"COc1ncc(-c2cc(C(F)(F)F)c3c(N)ncnn23)cc1C(=O)NC1CN(C2CCCC2C(O)C(F)(F)F)C[C@@H]1F (stereo partly drawn) [Example 1377, 5-[4-amino-5-(trifluoromethyl)-pyrrolo[2,1-f][1,2,4]triazin-7-yl]-N-[(3R,4S)-4-fluoro-1-[2-(2,2,2-trifluoro-1-hydroxy-ethyl)cyclopentyl]pyrrolidin-3-yl]-2-methoxypyridine-3-carboxamide]",375 nM
16,"COc1ncc(-c2cc(C(F)(F)F)c3c(N)ncnn23)cc1C(=O)N[C@@H]1CN(C2CCCC2C)C[C@@H]1F (stereo partly drawn) [Example 1378, 5-[4-amino-5-(trifluoromethyl)-pyrrolo[2,1-f][1,2,4]triazin-7-yl]-N-[(3R,4S)-4-fluoro-1-(2-methylcyclopentyl)pyrrolidin-3-yl]-2-methoxypyridine-3-carboxamide]",17 nM
17,"COc1ncc(-c2cc(C(F)(F)F)c3c(N)ncnn23)cc1C(=O)N[C@@H]1CN(C2CCCC2(C)C)C[C@@H]1F (stereo partly drawn) [Example 1379, 5-[4-amino-5-(trifluoromethyl)-pyrrolo[2,1-f][1,2,4]triazin-7-yl]-N-[(3R,4S)-1-(2,2-dimethylcyclopentyl)-4-fluoro-pyrrolidin-3-yl]-2-methoxy-pyridine-3-carboxamide]",134 nM
18,"COc1ncc(-c2cc(C(F)(F)F)c3c(N)ncnn23)cc1C(=O)NC1CN(C(C)C2CCC(F)(F)C2)C[C@@H]1F (stereo partly drawn) [Example 1385, 5-[4-amino-5-(trifluoromethyl)-pyrrolo[2,1-f][1,2,4]triazin-7-yl]-N-[(3R,4S)-1-[1-(3,3-difluorocyclopentyl)ethyl]-4-fluoropyrrolidin-3-yl]-2-methoxypyridine-3-carbox-amide]",16 nM
19,"COc1ncc(-c2cc(C(F)(F)F)c3c(N)ncnn23)cc1C(=O)N[C@@H]1CN(C(C)c2cncnc2)C[C@@H]1F (stereo partly drawn) [Example 1389, 5-[4-amino-5-(trifluoromethyl)-pyrrolo[2,1-f][1,2,4]triazin-7-yl]-N-[(3R,4S)-4-fluoro-1-[1-(pyrimidin-5-yl)ethyl]-pyrrolidin-3-yl]-2-methoxy-pyridine-3-carboxamide]",85 nM
20,"COc1ncc(-c2cc(C(F)(F)F)c3c(N)ncnn23)cc1C(=O)N[C@@H]1CN(C(C)c2cncnc2)C[C@@H]1F (stereo partly drawn) [Example 1395, 5-[4-amino-5-(trifluoromethyl)-pyrrolo[2,1-f][1,2,4]triazin-7-yl]-N-[(3R,4S)-4-fluoro-1-[1-(pyrimidin-5-yl)ethyl]-pyrrolidin-3-yl]-2-methoxy-pyridine-3-carboxamide]",10 nM
21,"COc1ncc(-c2cc(C(F)(F)F)c3c(N)ncnn23)cc1C(=O)NC1CN(C(C)c2c(C)noc2C)C[C@@H]1F (stereo partly drawn) [Example 1403, 5-[4-amino-5-(trifluoromethyl)-pyrrolo[2,1-f][1,2,4]triazin-7-yl]-N-[(3R,4S)-1-[1-(3,5-dimethyl-1,2-oxazol-4-yl)-ethyl]-4-fluoropyrrolidin-3-yl]-2-methoxypyridine-3-carboxamide]",92 nM
22,"COc1ncc(-c2cc(C(F)(F)F)c3c(N)ncnn23)cc1C(=O)NC1CN(C2CCCC2(C)O)C[C@@H]1F (stereo partly drawn) [Example 1408, 5-[4-amino-5-(trifluoromethyl)-pyrrolo[2,1-f][1,2,4]triazin-7-yl]-N-[(3R,4S)-4-fluoro-1-(2-hydroxy-2-methylcyclo-pentyl)-pyrrolidin-3-yl]-2-methoxypyridine-3-carbox-amide]",30 nM
23,"COc1ncc(-c2cc(C(F)(F)F)c3c(N)ncnn23)cc1C(=O)NC1CN(C(C)C(C)O)C[C@@H]1F (stereo partly drawn) [Example 1409, 5-[4-amino-5-(trifluoromethyl)-pyrrolo[2,1-f][1,2,4]triazin-7-yl]-N-[(3R,4S)-4-fluoro-1-(3-hydroxybutan-2-yl)pyrrolidin-3-yl]-2-methoxypyridine-3-carboxamide]",224 nM
24,"COc1ncc(-c2cc(C(F)(F)F)c3c(N)ncnn23)cc1C(=O)N[C@@H]1CN(C2CCCCC2(C)O)C[C@@H]1F (stereo partly drawn) [Example 1410, 5-[4-amino-5-(trifluoromethyl)-pyrrolo[2,1-f][1,2,4]triazin-7-yl]-N-[(3R,4S)-4-fluoro-1-(2-hydroxy-2-methylcyclohexyl)-pyrrolidin-3-yl]-2-methoxy-pyridine-3-carboxamide]",271 nM
